# Measured values taken from the supplement of paper PMC10441789.
# Some of the results follow. Antibody binding of pooled human sera (four to six donors per pool; dilution not stated) to peptides of the Trypanosoma cruzi antigen TSSA on microarrays. Quantile-normalised fluorescence in arbitrary units, mean of duplicate arrays; higher = more binding. No active / inactive call. The uninfected pools are read here as the healthy donors of the same country. The strongest signals lie near the top of the scale (about 60,000).
# Tests used:
# Assay in all cases: antibody binding signal (normalised fluorescence) (arbitrary fluorescence units); higher = stronger serum antibody binding to peptide
# [1] = system: pooled sera of chronic Chagas disease patients, Argentina
# Procedure: (§1)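 Microarray of 15-residue peptides over residues 30-55 of Trypanosoma cruzi TSSAII, each with 1 to 10 substitutions at naturally variable positions, probed with one serum pool per country.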
# [2] = system: pooled sera of chronic Chagas disease patients, Bolivia
# Procedure: as §1
# [3] = system: pooled sera of chronic Chagas disease patients, Brazil
# Procedure: as §1
# [4] = system: pooled sera of chronic Chagas disease patients, Colombia
# Procedure: as §1
# [5] = system: pooled sera of chronic Chagas disease patients, Mexico
# Procedure: as §1
# [6] = system: pooled sera of chronic Chagas disease patients, USA
# Procedure: as §1
# [7] = system: pooled sera of uninfected people, Argentina
# Procedure: as §1
# [8] = system: pooled sera of uninfected people, Bolivia
# Procedure: as §1
# [9] = system: pooled sera of uninfected people, Brazil
# Procedure: as §1
# [10] = system: pooled sera of uninfected people, Colombia
# Procedure: as §1
# [11] = system: pooled sera of uninfected people, Mexico
# Procedure: as §1
# [12] = system: pooled sera of uninfected people, USA
# Procedure: as §1
Sequence,antibody binding signal [1],antibody binding signal [2],antibody binding signal [3],antibody binding signal [4],antibody binding signal [5],antibody binding signal [6],antibody binding signal [7],antibody binding signal [8],antibody binding signal [9],antibody binding signal [10],antibody binding signal [11],antibody binding signal [12]
ENKPATGEAPSPPGA,46400,50900,51400,382,585,43000,1040,694,331,162,201,239
DNKPATGGTPSPPGA,377,1030,1230,216,391,293,243,465,609,373,222,134
KEKKTATGETPSQPG,549,314,21100,427,317,4680,229,172,104,123,155,117
GKDKKAATGGAPSPS,522,182,201,1030,996,886,215,105,131,213,78.6,98.9
GKDNKTAAGEAPSPP,2550,686,2620,5030,3620,6710,288,241,138,307,130,173
TDNKTATGETPSPPG,432,1540,3190,244,167,7930,107,376,226,119,140,1740
TDKKTATGGAPSQSG,1630,258,1250,2160,919,783,325,205,195,157,338,126
DNKPAAGETPSPSGA,202,295,14100,364,209,4060,131,305,314,219,274,422
GTEKKAAAGEAPSPP,1440,283,5360,846,1150,11800,132,910,121,86.8,109,99.8
KDKKAATGGAPSPSG,282,244,204,367,643,449,218,112,111,189,80.3,101
TDNKAATGGTPSQPG,345,1030,6880,1590,477,343,468,278,431,293,1210,89.4
EKKPAAGGTPSQSGA,869,198,387,4940,347,1240,227,623,2610,159,154,832
PSGKENKPATGGTPS,8140,1540,8590,7250,10200,8900,8940,3750,180,334,303,247
GTDKKAATGGAPSPP,618,248,512,2080,1150,1270,440,566,123,590,221,122
PPSGKEKKPATGGAP,1610,433,1780,1070,9890,2020,491,1030,104,275,102,244
TSSTPPSGTENKAAT,48700,51000,53100,421,3610,28900,3410,632,327,611,240,645
GTDKKPAAGETPSQP,393,2710,34600,6330,469,2580,150,329,214,533,655,125
DKKTAAGETPSQPGA,441,752,27100,360,422,2490,173,594,188,1150,364,194
GKDKKTATGGTPSPP,490,302,205,1380,739,1510,169,82.4,110,119,72.1,101
TEKKPATGETPSPPG,34800,30200,31000,332,315,24200,146,410,373,158,1910,1700
GKEKKAATGETPSPS,7450,798,4130,6120,7270,10600,254,101,83.6,212,95.6,921
KDNKPATGGTPSPPG,426,317,530,375,368,420,349,507,228,255,174,120
GKENKPAAGETPSPP,5820,1650,22700,6760,9300,14600,905,428,172,204,350,327
NKTAAGGAPSPPGAS,269,275,2280,6190,977,1070,837,1450,454,619,257,1440
PSGTEKKAAAGGTPS,10600,966,3310,10000,7060,5910,480,281,1170,322,160,389
